Most values come without repeats; read them as rough.
Legend:
CHO-K1 [1] = experiment: micronucleus frequency (% of nucleated events); higher = more micronuclei (genotoxic)
CHO-K1 [2] = experiment: hypodiploid nuclei frequency (% of nucleated events); higher = more hypodiploid events (aneugenic)
Description: (§1)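 Flow-cytometric in vitro micronucleus assay (Litron MicroFlow) in CHO-K1 cells in 96-well plates, 19 concentrations (4.5-200 µM, n=1 per concentration). Without S9, cells were exposed for 24 h and sampled at 48 h. With Aroclor 1254-induced rat liver S9, cells were exposed for 3-4 h and sampled at 27-28 h. Read-outs are %MN and %hypodiploid nuclei relative to nucleated events, and relative survival as the nuclei-to-bead ratio versus the 1% DMSO vehicle control (x100).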

CHO-K1 [3] = experiment: relative survival (nuclei to bead ratio vs DMSO control) (% of vehicle control); higher = more surviving cells
Description: as §1
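Wherever hypodiploid nuclei frequency (% of nucleated events) is given: hypodiploid nuclei gated on a flow cytometer with 488 nm excitation after SYTOX Green staining, cultures at 37 °C, positive controls vinblastine without S9 and cyclophosphamide with S9.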
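Wherever micronucleus frequency (% of nucleated events) is given: cells lysed with nuclei stained by SYTOX Green, then micronucleus-gated events counted against nucleated events by flow cytometry with 488 nm excitation.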
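Wherever relative survival (nuclei to bead ratio vs DMSO control) is given: Lysed-cell nuclei stained with SYTOX Green and counted against counting beads by flow cytometry at 488 nm excitation, with vinblastine (no S9) and cyclophosphamide (plus S9) as positive controls.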

CC(C)(OO)c1ccccc1 [Cumene hydroperoxide]
Conditions | hypodiploid nuclei frequency, CHO-K1 [2] [%] | micronucleus frequency, CHO-K1 [1] [%] | relative survival, CHO-K1 [3]
concentration: 4.5 (µM), S9 metabolic activation: with S9, exposure time: 3-4 hours | 0.12 | 1.34 | 113
concentration: 4.5 (µM), S9 metabolic activation: without S9, exposure time: 24 hours | 0.36 | 1.54 | 118
concentration: 5.63 (µM), S9 metabolic activation: with S9, exposure time: 3-4 hours | 0.46 | 1.7 | 91.5
concentration: 5.63 (µM), S9 metabolic activation: without S9, exposure time: 24 hours | 0.54 | 1.4 | 100
concentration: 7.04 (µM), S9 metabolic activation: with S9, exposure time: 3-4 hours | 0.28 | 1.38 | 89.3
concentration: 7.04 (µM), S9 metabolic activation: without S9, exposure time: 24 hours | 0.52 | 1.66 | 95
concentration: 8.8 (µM), S9 metabolic activation: with S9, exposure time: 3-4 hours | 0.28 | 1.42 | 95.3
concentration: 8.8 (µM), S9 metabolic activation: without S9, exposure time: 24 hours | 0.64 | 1.7 | 111
concentration: 11 (µM), S9 metabolic activation: with S9, exposure time: 3-4 hours | 0.26 | 1.1 | 107
concentration: 11 (µM), S9 metabolic activation: without S9, exposure time: 24 hours | 0.54 | 1.3 | 97.1
concentration: 13.7 (µM), S9 metabolic activation: with S9, exposure time: 3-4 hours | 0.2 | 1.5 | 95
concentration: 13.7 (µM), S9 metabolic activation: without S9, exposure time: 24 hours | 0.48 | 1.32 | 103
concentration: 17.2 (µM), S9 metabolic activation: with S9, exposure time: 3-4 hours | 0.32 | 2.06 | 115
concentration: 17.2 (µM), S9 metabolic activation: without S9, exposure time: 24 hours | 0.68 | 1.52 | 120
concentration: 21.5 (µM), S9 metabolic activation: with S9, exposure time: 3-4 hours | 0.4 | 1.14 | 126
concentration: 21.5 (µM), S9 metabolic activation: without S9, exposure time: 24 hours | 0.6 | 1.86 | 120
concentration: 26.8 (µM), S9 metabolic activation: with S9, exposure time: 3-4 hours | 0.22 | 1.38 | 87.1
concentration: 26.8 (µM), S9 metabolic activation: without S9, exposure time: 24 hours | 0.88 | 1.5 | 109
concentration: 33.6 (µM), S9 metabolic activation: with S9, exposure time: 3-4 hours | 0.36 | 1.58 | 84.4
concentration: 33.6 (µM), S9 metabolic activation: without S9, exposure time: 24 hours | 0.7 | 2.12 | 110
concentration: 41.9 (µM), S9 metabolic activation: with S9, exposure time: 3-4 hours | 0.34 | 1.54 | 76.4
concentration: 41.9 (µM), S9 metabolic activation: without S9, exposure time: 24 hours | 0.72 | 1.68 | 120
concentration: 52.4 (µM), S9 metabolic activation: with S9, exposure time: 3-4 hours | 0.22 | 1.74 | 83.3
concentration: 52.4 (µM), S9 metabolic activation: without S9, exposure time: 24 hours | 0.9 | 1.9 | 96
concentration: 65.5 (µM), S9 metabolic activation: with S9, exposure time: 3-4 hours | 0.34 | 2.06 | 84.8
concentration: 65.5 (µM), S9 metabolic activation: without S9, exposure time: 24 hours | 0.72 | 2.06 | 121
concentration: 81.9 (µM), S9 metabolic activation: with S9, exposure time: 3-4 hours | 0.2 | 2.12 | 94.5
concentration: 81.9 (µM), S9 metabolic activation: without S9, exposure time: 24 hours | 0.7 | 2.38 | 110
concentration: 102 (µM), S9 metabolic activation: with S9, exposure time: 3-4 hours | 0.24 | 1.66 | 107
concentration: 102 (µM), S9 metabolic activation: without S9, exposure time: 24 hours | 1.14 | 2.02 | 106
concentration: 128 (µM), S9 metabolic activation: with S9, exposure time: 3-4 hours | 0.44 | 1.54 | 88.3
concentration: 128 (µM), S9 metabolic activation: without S9, exposure time: 24 hours | 1.24 | 2.92 | 88.1
concentration: 160 (µM), S9 metabolic activation: with S9, exposure time: 3-4 hours | 0.44 | 2.54 | 94.7
concentration: 160 (µM), S9 metabolic activation: without S9, exposure time: 24 hours | 1.54 | 3.32 | 47.6
concentration: 200 (µM), S9 metabolic activation: with S9, exposure time: 3-4 hours | 0.2 | 1.96 | 101
concentration: 200 (µM), S9 metabolic activation: without S9, exposure time: 24 hours | – | – | 22.2
